# Where “and” joins values, the source holds several entries; their conditions need not be identical. Identical values can stand only once. The shares of active, inactive and inconclusive entries below differ from those in the screen. For some of these results: Potencies beside an inconclusive call are fits to weak or partial responses and may not hold up. Calls of active or inactive are those of the source. Calls follow the shape of the dose curve; as a rule, active = well fitted curve in the direction sought with a large enough effect; inconclusive = small, poorly fitted or top-dose-only effect, or another doubt; inactive = no such curve, though single readings can be large; an effect the other way counts as inactive or inconclusive.
# Tests used:
# [1] = qHTS of pediatric cancer cell lines to identify multiple opportunities for drug repurposing: Primary screen for TC32 cells (AID 1347089); also: nearly all actives have a fitted effect of over 60% in size; also: potency is read from the fitted curve at half-maximal effect
# In short: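 TC32 cells, 500-1,000/well in growth medium, compound-treated 48 h at 37 °C; viability from CellTiter-Glo luminescence. Primary screen: MIPE 11-point (0.78 nM–46 µM final), NPC 8-point (0.59 nM–46 µM final); confirmatory at 11-point dilutions.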
# [2] = qHTS of pediatric cancer cell lines to identify multiple opportunities for drug repurposing: Primary screen for A673 cells (AID 1347092); settings: A673 Ewing sarcoma viability, CellTiter-Glo ATP luminescence, 48 h; activity change, negative = cytotoxic: at 46 µM (top of the series); also: potency is read from the fitted curve at half-maximal effect; nearly all actives have a fitted effect of over 45% in size
# In short: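 A673 cells (500-1,000 cells/well) were treated 48 hours at 37 degrees C with compounds at 11-point (0.78 nM to 46 µM) or 8-point (0.59 nM to 46 µM) dilutions. Viability read by CellTiter-Glo luminescence; concentration-response curves fitted.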
# [3] = qHTS of pediatric cancer cell lines to identify multiple opportunities for drug repurposing: Primary screen for DAOY cells (AID 1347090); settings: DAOY medulloblastoma viability, CellTiter-Glo luminescence, 48 h; activity change, negative = cytotoxic: at 46 µM (top of the series) unless noted; also: nearly all actives have a fitted effect of over 55% in size; also: potency is read from the fitted curve at half-maximal effect
# In short: (§1)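 Viability measured as metabolically active cells via CellTiter-Glo luminescence following 48 hours of compound exposure, 11-point dilutions in confirmatory testing. 500-1,000 cells/well plated 5 hours before dosing; controls were DMSO and 2.3 µM bortezomib.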
# [4] = qHTS of pediatric cancer cell lines to identify multiple opportunities for drug repurposing: Primary screen for SJ-GBM2 cells (AID 1347091); also: potency is read from the fitted curve at half-maximal effect
# In short: as §1
# [5] = qHTS of pediatric cancer cell lines to identify multiple opportunities for drug repurposing: Primary screen for SK-N-MC cells (AID 1347093); settings: SK-N-MC viability, CellTiter-Glo luminescence, 48 h; activity change, negative = cytotoxic: at 46 µM (top of the series); also: potency is read from the fitted curve at half-maximal effect
# In short: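 Metabolically active cells were quantified by ATP-dependent luminescence (CellTiter-Glo, 15 min at room temperature) following 48 h treatment. Cells had been plated at 500-1,000 per well and settled for 5 h beforehand.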
# [6] = qHTS of pediatric cancer cell lines to identify multiple opportunities for drug repurposing: Primary screen for BT-37 cells (AID 1347094)
# In short: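 500-1,000 cells/well; 5 h pre-incubation 37 °C/5% CO2; compound pinned; 48 h; CellTiter-Glo, 15 min RT; luminescence. MIPE 11-pt from 0.78 nM, NPC 8-pt from 0.59 nM final. Bortezomib 2.3 µM final as positive control.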
# Tags tell the direction and shape of the fitted curve.
smiles,measurement,setting,value
COc1ccccc1N1CCN(CC(O)COc2cccc3ccccc23)CC1 (stereo not drawn),Potency,[1],"inconclusive: 18.6 µM [cytotoxic, partial curve] and inconclusive: 14.9 µM [cytotoxic, partial curve, poor fit]"
same,Potency,[2],"inconclusive: 26.6 µM [cytotoxic, single point]"
C=CC[N+]1([C@H]2C[C@H]3[C@@H]4CC[C@H]5C[C@H](O)[C@@H](N6CCOCC6)C[C@]5(C)[C@@H]4CC[C@]3(C)[C@H]2OC(C)=O)CCCC1,Potency,[1],inactive
same,Potency,[2],"inconclusive: 29.6 µM [cytotoxic, single point]"
COc1cc([C@H]2Oc3cc([C@H]4Oc5cc(O)cc(O)c5C(=O)[C@H]4O)ccc3O[C@H]2CO)ccc1O,Potency,[3],"inconclusive: 18.7 µM [cytotoxic, partial curve]"
same,Potency,[4],"inconclusive: 20.9 µM [cytotoxic, single point]"
CC(C)n1c(C=C[C@H](O)C[C@H](O)CC(=O)O)c(-c2ccc(F)cc2)c2ccccc21,Potency,[1],"inconclusive: 26.2 µM [cytotoxic, single point]"
same,Potency,[2],"inconclusive: 4.69 µM [cytotoxic, partial curve, poor fit]"
CC1(C)O[C@H]2C[C@@H]3[C@H]4CCC5=CC(=O)C=C[C@]5(C)[C@@]4(F)[C@@H](O)C[C@]3(C)[C@]2(C(=O)CO)O1,Potency,[3],inactive
same,Potency,[4],"inconclusive: 16.6 µM [cytotoxic, partial curve]"
O=C(Nc1c(Cl)cncc1Cl)c1ccc(OC(F)F)c(OCC2CC2)c1,Potency,[1],inactive
same,Potency,[5],"inconclusive: 37.2 µM [cytotoxic, single point]"
same,Potency,[6],inactive

# — PubChem BioAssay (NCATS)
